PubChem BioAssay (NCI)
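Compound exposure: 48 hours, 5 concentrations, 96-well plates. TGI denotes the concentration required for complete inhibition of growth.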

System: NCI-H322M lung
Experiment: growth of human tumour cells (NCI), 48 h

SMILES	TGI [µM]
CCN1C[C@]2(C)CC[C@H](OC)C34C5C[C@@H]6[C@@H](OC)C[C@@](OC)(C5[C@H]6OCc5ccccc5)C(C13)[C@H](OC(C)=O)[C@@H]42 (stereo partly specified)	> 100
Nc1ccc(-c2nc3ccc(F)cc3s2)cc1I	> 100
c1ccc2cc3c(cc2c1)OP1(Oc2cccc4cccnc24)(O3)Oc2cc3ccccc3cc2O1	> 94.6
CSc1c(C#N)c(S)n(-c2ccc(Cl)cc2)c(=O)c1C#N	> 100
COc1cccc(C(NC2=NCCC=N2)c2cc3c(cc2O)OCO3)c1O (stereo unspecified)	> 100
COc1c(CC=C(C)C)c(O)c(C(CC(C)C)c2c(O)c(CC=C(C)C)c(O)c(C(C)=O)c2O)c(O)c1C(C)=O (stereo unspecified)	11.3
